Laboratory results published in publication PMC10411901, “FIRRM cooperates with FIGNL1 to promote RAD51 disassembly during DNA repair” (Science Advances, 2023).
These are yes or no findings as the source states them, for the method shown. For some assays here: Binding seen in cells or lysates may run through a third protein. Some binding calls cover weakened binding; strength is not graded here. For some assays here: Where a sequence is shown, tags or fusion partners need not be part of it.

What was measured:
[1] = molecular target: T1, mCherry-LacRnls-FIGNL1 (human) (UniProt Q6PIW4); assay: LacO/LacR tethering assay (recruitment to a LacO array in cells); mCherry-LacRnls-FIRRM or -FIGNL1 transfected in U2OS 2-6-5 cells and processed for RAD51 immunofluorescence at the LacO array
T1 sequence: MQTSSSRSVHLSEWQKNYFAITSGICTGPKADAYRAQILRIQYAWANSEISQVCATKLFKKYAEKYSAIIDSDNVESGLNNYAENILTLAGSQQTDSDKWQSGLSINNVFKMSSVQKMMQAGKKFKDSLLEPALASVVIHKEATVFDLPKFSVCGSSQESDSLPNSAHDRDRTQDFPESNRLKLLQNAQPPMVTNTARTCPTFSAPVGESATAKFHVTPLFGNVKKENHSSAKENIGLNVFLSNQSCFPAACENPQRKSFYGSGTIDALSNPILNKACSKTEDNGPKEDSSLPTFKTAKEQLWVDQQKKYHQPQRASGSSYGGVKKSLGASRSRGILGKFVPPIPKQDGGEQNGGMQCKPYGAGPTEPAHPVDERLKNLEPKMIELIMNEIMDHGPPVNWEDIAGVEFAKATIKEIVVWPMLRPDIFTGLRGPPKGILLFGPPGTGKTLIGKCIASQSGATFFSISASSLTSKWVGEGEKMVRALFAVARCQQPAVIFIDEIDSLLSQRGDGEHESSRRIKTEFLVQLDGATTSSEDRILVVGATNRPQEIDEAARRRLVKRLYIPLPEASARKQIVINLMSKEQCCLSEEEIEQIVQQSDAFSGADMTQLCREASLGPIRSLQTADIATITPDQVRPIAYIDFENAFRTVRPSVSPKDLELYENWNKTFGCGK

[2] = molecular target: T1, mCherry-LacRnls-FIGNL1 (human); assay: LacO/LacR tethering assay (recruitment to a LacO array in cells); mCherry-LacRnls-bait transiently transfected and held at the LacO array of U2OS 2-6-5 cells; colocalization of the GFP-tagged prey at the mCherry locus quantified; FOK1 nuclease not expressed
[3] = molecular target: T2, 3xFLAG-FIRRM FL (human) (UniProt Q9NSG2); assay: co-IP; FLAG IP from U2OS cells depleted for FIGNL1 (siRNA) and transfected for 24 hours; high-salt buffer (300 mM NaCl, 50 mM tris-HCl, 1 mM EDTA, 1% Triton X-100); immunoblot
T2 sequence: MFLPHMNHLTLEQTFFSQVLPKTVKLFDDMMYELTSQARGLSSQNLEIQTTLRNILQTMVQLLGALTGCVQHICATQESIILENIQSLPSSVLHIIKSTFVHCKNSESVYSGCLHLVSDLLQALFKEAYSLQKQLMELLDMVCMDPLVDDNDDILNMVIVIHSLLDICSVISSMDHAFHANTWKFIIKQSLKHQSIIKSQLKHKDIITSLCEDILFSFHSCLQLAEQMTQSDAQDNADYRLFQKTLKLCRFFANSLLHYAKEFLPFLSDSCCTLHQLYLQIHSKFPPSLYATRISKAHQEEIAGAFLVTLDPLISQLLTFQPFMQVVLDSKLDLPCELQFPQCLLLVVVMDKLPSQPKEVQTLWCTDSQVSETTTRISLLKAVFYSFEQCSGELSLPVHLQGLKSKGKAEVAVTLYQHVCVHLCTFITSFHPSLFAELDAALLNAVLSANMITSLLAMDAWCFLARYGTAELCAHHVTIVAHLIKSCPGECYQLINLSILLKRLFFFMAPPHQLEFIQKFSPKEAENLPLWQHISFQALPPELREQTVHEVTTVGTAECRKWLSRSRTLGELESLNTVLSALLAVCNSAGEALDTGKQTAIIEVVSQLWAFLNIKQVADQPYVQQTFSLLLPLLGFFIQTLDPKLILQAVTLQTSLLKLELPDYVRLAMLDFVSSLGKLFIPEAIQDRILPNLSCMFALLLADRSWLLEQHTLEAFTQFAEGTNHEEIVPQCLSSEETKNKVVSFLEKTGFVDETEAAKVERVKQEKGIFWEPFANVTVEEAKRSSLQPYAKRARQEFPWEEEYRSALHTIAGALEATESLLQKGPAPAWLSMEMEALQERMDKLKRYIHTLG

[4] = molecular target: recombinant RAD51 (UniProt Q06609); assay: co-IP; purified recombinant proteins in pairs (RAD51 with FIGNL1 or with FIRRM); anti-RAD51 14B4 on protein A/G Sepharose; IPB buffer (20 mM KPO4 pH 7.4, 175 mM KCl, 0.5 mM EDTA, 0.5% NP-40, 10% glycerol, 1 mM DTT); room temperature; Western blot; both purified
[5] = molecular target: T3, mCherry-LacRnls-FIRRM (human) (UniProt Q9NSG2); assay: LacO/LacR tethering assay (recruitment to a LacO array in cells); mCherry-LacRnls-bait transiently transfected and held at the LacO array of U2OS 2-6-5 cells; colocalization of the GFP-tagged prey at the mCherry locus quantified; FOK1 nuclease not expressed
T3 sequence: T2 sequence

[6] = molecular target: T4, endogenous FIRRM (human (endogenous in U2OS)) (UniProt Q9NSG2); assay: co-IP; immunoprecipitation of endogenous FIRRM from U2OS cell extracts treated with benzonase; immunoblot
T4 sequence: T2 sequence

[7] = molecular target: T5, mCherry-LacRnls-FIGNL1 amino acids 1 to 120 (human), Q6PIW4; assay: LacO/LacR tethering assay (recruitment to a LacO array in cells); mCherry-LacRnls-bait transiently transfected and held at the LacO array of U2OS 2-6-5 cells; colocalization of the GFP-tagged prey at the mCherry locus quantified; FOK1 nuclease not expressed; conditions: remark: other sources report otherwise
T5 chain: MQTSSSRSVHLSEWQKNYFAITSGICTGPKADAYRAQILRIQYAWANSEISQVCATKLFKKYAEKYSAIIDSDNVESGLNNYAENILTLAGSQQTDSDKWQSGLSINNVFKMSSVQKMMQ

[8] = molecular target: T6, mCherry-LacRnls-FIRRM (human), Q9NSG2; assay: LacO/LacR tethering assay (recruitment to a LacO array in cells); mCherry-LacRnls-FIRRM or -FIGNL1 transfected in U2OS 2-6-5 cells and processed for RAD51 immunofluorescence at the LacO array; conditions: remark: other sources report otherwise
T6 chain: T2 sequence

Q: For “endogenous RAD51 (from UniProt Q06609 1-339)”, which binding [1] is on record?
A: Its binding is “binds”.

B1: GFP-FIRRM amino acids 1 to 735 (domain or fragment, UniProt Q9NSG2 1-735)
chain: MFLPHMNHLTLEQTFFSQVLPKTVKLFDDMMYELTSQARGLSSQNLEIQTTLRNILQTMVQLLGALTGCVQHICATQESIILENIQSLPSSVLHIIKSTFVHCKNSESVYSGCLHLVSDLLQALFKEAYSLQKQLMELLDMVCMDPLVDDNDDILNMVIVIHSLLDICSVISSMDHAFHANTWKFIIKQSLKHQSIIKSQLKHKDIITSLCEDILFSFHSCLQLAEQMTQSDAQDNADYRLFQKTLKLCRFFANSLLHYAKEFLPFLSDSCCTLHQLYLQIHSKFPPSLYATRISKAHQEEIAGAFLVTLDPLISQLLTFQPFMQVVLDSKLDLPCELQFPQCLLLVVVMDKLPSQPKEVQTLWCTDSQVSETTTRISLLKAVFYSFEQCSGELSLPVHLQGLKSKGKAEVAVTLYQHVCVHLCTFITSFHPSLFAELDAALLNAVLSANMITSLLAMDAWCFLARYGTAELCAHHVTIVAHLIKSCPGECYQLINLSILLKRLFFFMAPPHQLEFIQKFSPKEAENLPLWQHISFQALPPELREQTVHEVTTVGTAECRKWLSRSRTLGELESLNTVLSALLAVCNSAGEALDTGKQTAIIEVVSQLWAFLNIKQVADQPYVQQTFSLLLPLLGFFIQTLDPKLILQAVTLQTSLLKLELPDYVRLAMLDFVSSLGKLFIPEAIQDRILPNLSCMFALLLADRSWLLEQHTLEAFTQFAEGTNHEEIVPQCLSS
Q: B1 was tested. Which binding [2] did it give?
A: The binding was “binds”.

B2: mCherry-LacRnls-FIGNL1 (protein, UniProt Q6PIW4 1-674)
chain: T1 sequence
Q: How did the binding [3] turn out when B2 was run?
A: The binding was “binds”.

B3: recombinant full-length FIGNL1 (natural protein, human, UniProt Q6PIW4 1-674, looked up)
chain: T1 sequence
notes: Insect cell form: modified pFastBac dual vector with an N-terminal GFP tag removable with TEV protease; source: purified from bacteria (E. coli BL21RP) or Sf9 insect cells
Q: B3 was tested. Which binding [4] did it give?
A: The binding was “binds”.

B4: GFP-tagged FIGNL1 (protein, UniProt Q6PIW4 1-674)
chain: T1 sequence
Q: For B4, which binding [5] is on record?
A: Its binding is “binds”.

B5: endogenous FIGNL1 (Fidgetin like 1) (protein, UniProt Q6PIW4 1-674)
chain: T1 sequence
Q: B5 was tested. Which binding [6] did it give?
A: The binding was “binds”.

B6: GFP-FIRRM full length, Q9NSG2 1-853 (protein)
chain: T2 sequence
Q: Which binding [7] does the source give for B6 here?
A: Its binding is “no binding”.

B7: endogenous RAD51, Q06609 1-339 (protein)
chain: MAMQMQLEANADTSVEEESFGPQPISRLEQCGINANDVKKLEEAGFHTVEAVAYAPKKELINIKGISEAKADKILAEAAKLVPMGFTTATEFHQRRSEIIQITTGSKELDKLLQGGIETGSITEMFGEFRTGKTQICHTLAVTCQLPIDRGGGEGKAMYIDTEGTFRPERLLAVAERYGLSGSDVLDNVAYARAFNTDHQTQLLYQASAMMVESRYALLIVDSATALYRTDYSGRGELSARQMHLARFLRMLLRLADEFGVAVVITNQVVAQVDGAAMFAADPKKPIGGNIIAHASTTRLYLRKGRGETRICKIYDSPCLPEAEAMFAINADGVGDAKD
Q: With B7 as the molecule, how does the binding [8] read?
A: The binding was “no binding”.
